{"source": "the supplement of paper PMC9588766", "note": "Where a name gives a salt, the structure may show the parent alone. ± gives the standard deviation of the averaged measurements. Whole data set: some 2,000 compounds, median “cell viability relative to DMSO control (compound alone)” near 0.98, cut for the lowest 2% near 0.23. Some of the results follow.", "data": [{"test_system": "PDC-DUC18828", "assay": "cell viability relative to DMSO control (compound alone) (fraction); PDC-DUC18828 is a patient-derived cholangiocarcinoma cell line; higher = less growth inhibition", "details": "1 µM; 72 h", "experimental": "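Selleck Bioactive library screen in the patient-derived FGFR2-G3BP2 fusion-positive ICC cell line PDC-DUC18828 (500 cells/well). Each compound was tested at 1 uM alone, in triplicate, for 72 h. Viability was read by CellTiter-Glo and normalised to plate DMSO controls.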", "values": [{"smiles": "COC(=O)C1=C(C)NC(C)=C(C(=O)OCCN(C)Cc2ccccc2)C1c1cccc([N+](=O)[O-])c1", "note": "(stereo not drawn) [Nicardipine HCl]", "cell viability": "0.996 ± 0.025"}, {"smiles": "COCCOc1ccc2c(c1)ncn2-c1ccc2cccc(N3CCC(N)CC3)c2n1", "cell viability": "1.09 ± 0.025"}, {"smiles": "Cc1cc(Nc2cc(N3CCN(C)CC3)nc(/C=C/c3ccccc3)n2)n[nH]1", "cell viability": "0.459 ± 0.034"}, {"smiles": "Cc1cc(-c2ccc(CC(=O)Nc3ccc(-c4cccnc4)cc3)cc2)ccn1", "cell viability": "1.03 ± 0.012"}, {"smiles": "COc1ccc(C2CC(c3ccccc3)=NN2c2ccc(S(N)(=O)=O)cc2)cc1", "note": "(stereo not drawn)", "cell viability": "0.991 ± 0.05"}, {"smiles": "Oc1cc(O)c(Cl)cn1", "note": "[Gimeracil]", "cell viability": "1 ± 0.026"}, {"smiles": "COc1ccc2cc(OCC3(C(=O)O)CN(C(=O)c4ccc(F)cc4)C3)ccc2c1", "cell viability": "0.954 ± 0.039"}, {"smiles": "COC(=O)C1=C(C)NC(C)=C(C(=O)OCC(C)C)C1c1ccccc1[N+](=O)[O-]", "note": "(stereo not drawn) [Nisoldipine]", "cell viability": "1.06 ± 0.064"}, {"smiles": "CC1(C)CNc2cc(NC(=O)c3cccnc3NCc3ccncc3)ccc21", "note": "[Motesanib Diphosphate (AMG-706)]", "cell viability": "0.976 ± 0.064"}, {"smiles": "CC[C@@H]1/C=C(\\C)C[C@H](C)C[C@H](OC)[C@H]2O[C@@](O)(C(=O)C(=O)N3CCCC[C@H]3C(=O)O[C@H](/C(C)=C/[C@@H]3CC[C@@H](O)[C@H](OC)C3)[C@H](C)[C@@H](O)CC1=O)[C@H](C)C[C@@H]2OC", "note": "[Ascomycin (FK520)]", "cell viability": "0.979 ± 0.014"}, {"smiles": "CC1=C(/C=C/C(C)=C/C=C/C(C)=C\\C(=O)O)C(C)(C)CCC1", "note": "[Isotretinoin]", "cell viability": "0.943 ± 0.042"}, {"smiles": "CC/C(=C(/CC)c1ccc(O)cc1)c1ccc(O)cc1", "note": "[Diethylstilbestrol]", "cell viability": "1.01 ± 0.033"}, {"smiles": "NC(N)=Nc1nc(CSCC/C(N)=N/S(N)(=O)=O)cs1", "note": "[Famotidine]", "cell viability": "0.977 ± 0.039"}, {"smiles": "C/C(=C\\c1ccc(C(=O)O)cc1)c1ccc2c(c1)C(C)(C)CCC2(C)C", "note": "[TTNPB (Arotinoid Acid)]", "cell viability": "0.863 ± 0.06"}, {"smiles": "COc1ccc(-c2ccc3c(N4CCOCC4)nc(N4C[C@@H](C)O[C@@H](C)C4)nc3n2)cc1CO", "cell viability": "0.934 ± 0.0096"}, {"smiles": "OC(CN1CCN(c2cccc(Cl)c2)CC1)C(c1ccccc1)c1ccccc1", "note": "(stereo not drawn)", "cell viability": "0.96 ± 0.028"}, {"smiles": "COc1cc(OC)c(/C=C/S(=O)(=O)Cc2ccc(OC)c(NCC(=O)O)c2)c(OC)c1", "cell viability": "0.268 ± 0.02"}, {"smiles": "CN(C)[C@@H]1C(O)=C(C(N)=O)C(=O)[C@@]2(O)C(O)=C3C(=O)c4c(O)cccc4[C@@](C)(O)[C@H]3[C@H](O)[C@@H]12", "note": "[Oxytetracycline (Terramycin)]", "cell viability": "0.931 ± 0.012"}, {"smiles": "CN(C)[C@@H]1C(O)=C(C(N)=O)C(=O)[C@@]2(O)C(O)=C3C(=O)c4c(O)cccc4[C@@](C)(O)[C@H]3[C@H](O)[C@@H]12", "note": "[Oxytetracycline Dihydrate]", "cell viability": "1.07 ± 0.042"}, {"smiles": "CCCCCCCc1ccc(CCc2cccc(O)c2C(=O)O)cc1", "cell viability": "0.936 ± 0.033"}, {"smiles": "Cc1noc(C)c1-c1ccc(-c2cc(C(N)=O)c(NC(N)=O)s2)c(O[C@H]2CCNC2)c1", "cell viability": "0.97 ± 0.038"}, {"smiles": "Cc1ccc([N+](=O)[O-])cc1S(=O)(=O)N(C)/N=C/c1cnc2ccc(Br)cn12", "cell viability": "0.958 ± 0.017"}, {"smiles": "CN1CCN(c2c(F)cc3c(=O)c(C(=O)O)cn4c3c2OCN4C)CC1", "note": "[Marbofloxacin]", "cell viability": "1.12 ± 0.036"}, {"smiles": "OC(CCCN1CCCCC1)(c1ccccc1)c1ccccc1", "note": "[Diphenidol HCl]", "cell viability": "1.04 ± 0.038"}, {"smiles": "CCN(CC)CCOC(=O)C(c1ccccc1)c1ccccc1", "note": "[Adiphenine HCl]", "cell viability": "1.1 ± 0.043"}, {"smiles": "CCCCCCCCCCCCc1ccc(S(=O)(=O)Nc2nncs2)cc1", "cell viability": "0.987 ± 0.067"}, {"smiles": "CCOC(=O)c1ccc(N)cc1", "note": "[Benzocaine]", "cell viability": "1 ± 0.027"}, {"smiles": "C[C@H]1[C@H](C)CC[C@]2(C(=O)O)CC[C@]3(C)C(=CC[C@@H]4[C@@]5(C)C[C@@H](O)[C@H](O)[C@@](C)(CO)[C@@H]5CC[C@]43C)[C@H]12", "note": "[Asiatic Acid]", "cell viability": "1.03 ± 0.055"}, {"smiles": "C=CC(C)(C)c1cc(/C=C/C(=O)c2ccc(O)cc2)c(OC)cc1O", "note": "[Licochalcone A]", "cell viability": "0.982 ± 0.039"}, {"smiles": "Cc1ncc(Cl)cc1NCc1ccc(C(=O)N[C@@H](CC2CCCC2)C(=O)NC2CC2)s1", "cell viability": "0.9531 ± 0.0022"}, {"smiles": "O=C(CCCCCCC(=O)Nc1ccc([C@H]2O[C@@H](CSc3nc(-c4ccccc4)c(-c4ccccc4)o3)C[C@@H](c3ccc(CO)cc3)O2)cc1)NO", "note": "[Tubacin]", "cell viability": "1.04 ± 0.028"}, {"smiles": "COc1cc(C(C)=O)ccc1O", "note": "[Apocynin]", "cell viability": "1.01 ± 0.042"}, {"smiles": "Nc1cc(F)ccc1NC(=O)/C=C/c1cnn(C/C=C/c2ccccc2)c1", "cell viability": "0.956 ± 0.02"}, {"smiles": "CN(Cc1cnc2nc(N)nc(N)c2n1)c1ccc(C(=O)N[C@@H](CCC(=O)O)C(=O)O)cc1", "note": "[Methotrexate]", "cell viability": "0.85 ± 0.032"}, {"smiles": "CCOc1ccc2nc3cc(N)ccc3c(N)c2c1", "note": "[Ethacridine lactate monohydrate]", "cell viability": "0.956 ± 0.062"}, {"smiles": "O=C1NC(=O)/C(=C/c2ccc3c(c2)OC(F)(F)O3)S1", "cell viability": "1.11 ± 0.051"}, {"smiles": "O=c1[nH]cnc2c1ncn2[C@@H]1O[C@H](CO)[C@@H](O)[C@H]1O", "note": "[Inosine]", "cell viability": "0.935 ± 0.029"}, {"smiles": "CCOc1ccccc1OC(c1ccccc1)C1CNCCO1", "note": "(stereo not drawn) [Reboxetine mesylate]", "cell viability": "1.01 ± 0.059"}, {"smiles": "COc1cc([C@@H]2c3cc4c(cc3[C@@H](O[C@@H]3O[C@@H]5CO[C@@H](c6cccs6)O[C@H]5[C@H](O)[C@H]3O)[C@H]3COC(=O)[C@H]23)OCO4)cc(OC)c1O", "note": "[Teniposide]", "cell viability": "0.189 ± 0.021"}, {"smiles": "Nc1nc(=S)c2ncn([C@H]3C[C@H](O)[C@@H](CO)O3)c2[nH]1", "cell viability": "0.904 ± 0.054"}, {"smiles": "O=c1ccc2ccccc2o1", "note": "[Coumarin]", "cell viability": "1.13 ± 0.069"}, {"smiles": "Cc1nc(-c2cccnc2)sc1C(=O)Nc1ccccc1-c1cn2c(CN3CCOCC3)csc2n1", "cell viability": "0.96 ± 0.042"}, {"smiles": "CN(C)CCCN1c2ccccc2Sc2ccc(Cl)cc21", "note": "[Chlorpromazine HCl]", "cell viability": "0.949 ± 0.032"}, {"smiles": "C[C@H](Nc1ncnc2[nH]cnc12)c1cc2ccc(F)cc2nc1-c1ccccn1", "cell viability": "0.932 ± 0.028"}, {"smiles": "Nc1ccc(C(=O)Nc2cccc(-c3nc(N4CCOCC4)c4oc5ncccc5c4n3)c2)cn1", "cell viability": "0.729 ± 0.031"}, {"smiles": "O=C(O)[C@H]1O[C@@H](Oc2cc3oc(-c4ccccc4)cc(=O)c3c(O)c2O)[C@H](O)[C@@H](O)[C@@H]1O", "note": "[Baicalin]", "cell viability": "1.06 ± 0.031"}, {"smiles": "Cn1cc(-c2ccncc2)c(-c2ccc(OCc3ccc4ccccc4n3)cc2)n1", "cell viability": "0.958 ± 0.049"}, {"smiles": "C=CC(=O)Nc1ccc(CN2C(=O)N(c3cc(OC)cc(OC)c3)Cc3cnc(Nc4ccc(N5CCN(C)CC5)cc4)nc32)cc1", "cell viability": "0.798 ± 0.057"}]}]}
